Screen size: about 310,000 compounds; about 17,000 (5.5%) were called active. Inconclusive results (about 11%) are left out. The call rests on the fitted dose curve; in most records, active means well fitted inhibition curve with a large enough effect; inconclusive means small, poorly fitted or top-dose-only effect, or effect the other way; inactive means no such curve, though single readings can be large or run the other way. This is a selection; strong and weak results do not stand in their true shares.
target: Nuclear receptor ROR-gamma (Mus musculus) (UniProt P51450); experiment: qHTS for inhibitors of ROR gamma transcriptional activity; settings: Drosophila S2 Gal4-RORgamma UAS-luciferase reporter, 20 h; series mostly up to 53.6 µM; activity change, negative = inhibition: at the top concentration; further: nearly all actives have a fitted effect of over 60% in size
UniProt P51450, sequence (P51450 whole entry, looked up, the tested form may be a part): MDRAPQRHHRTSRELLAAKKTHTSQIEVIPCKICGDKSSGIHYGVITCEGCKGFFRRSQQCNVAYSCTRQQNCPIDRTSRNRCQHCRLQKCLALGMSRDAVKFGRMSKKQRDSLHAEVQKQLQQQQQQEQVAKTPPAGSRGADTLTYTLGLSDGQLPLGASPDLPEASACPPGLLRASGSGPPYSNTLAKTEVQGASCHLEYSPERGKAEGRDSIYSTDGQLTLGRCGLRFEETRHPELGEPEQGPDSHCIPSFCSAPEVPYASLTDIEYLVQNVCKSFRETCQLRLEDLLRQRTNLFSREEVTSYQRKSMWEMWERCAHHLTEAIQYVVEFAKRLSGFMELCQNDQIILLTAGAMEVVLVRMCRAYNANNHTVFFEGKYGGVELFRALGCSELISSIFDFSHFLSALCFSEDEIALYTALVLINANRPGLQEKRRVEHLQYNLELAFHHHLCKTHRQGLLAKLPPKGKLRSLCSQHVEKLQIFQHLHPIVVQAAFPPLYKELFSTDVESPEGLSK
Outline: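 Drosophila S2 cells stably expressing Gal4-DBD/mouse RORγ fusion under metallothionein promoter plus UAS-luciferase; compound 1 h, then 700 uM CuSO4 induction for 20 h at ambient temperature; inhibition read as reduced luminescence.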
On the % scale 0 is the no-effect control and ±100 the full control effect; potency means the concentration at half of the fitted maximal effect.

Row | Structure (SMILES) | Potency | activity change, negative = inhibition
1 | Cc1ccsc1/C=N/NC(=O)c1sccc1C | active: 7.94 µM | –
2 | CCOc1cc(CC(=O)N[C@@H](CC(C)C)c2ccccc2N2CCCCC2)ccc1C(=O)O | – | inactive: -14.5% [at 2.98 µM]
3 | O=C(O)c1ccc(OCCn2ccnc2)cc1 | – | inactive: -0.743%
4 | Cc1noc(NS(=O)(=O)c2ccc(N/C=C/C(=O)c3ccc4c(c3)OCO4)cc2)c1C | – | inactive: 38.8%
5 | COc1cccc([C@H](O)Cn2cc(-c3ccc(CON=C(C)C)cc3)nn2)c1 | – | inactive: 0.926% [at 10 µM]
6 | Cc1cc(/C=C2\NC(=S)NC2=O)c(C)n1-c1cccnc1 | – | inactive: -13.3%
7 | CCN1C(=NCCc2cccnc2)N[C@@H](c2ccccc2)[C@H](C(=O)OC)[C@H]1C | – | inactive: -1.07%
8 | COc1ccc(Oc2ccc(N/C=C3\CCCC3=O)cc2)cc1 | – | inactive: 38.8%
9 | CC(C)c1ccc2c(c1)CCC1C(C)(CN)CCCC21C (stereo not drawn) | – | inactive: 29.4%
10 | Cc1cccc2sc(NNC(=O)c3ccc(S(=O)(=O)N4CCCC(C)C4)cc3)nc12 (stereo not drawn) | active: 3.55 µM | –
11 | CCOC(=O)[C@@H]1[C@H]2COc3ccccc3[C@@H]2N2C(=O)N(c3cccc(Cl)c3)C(=O)[C@]12C | – | inactive: -9.14%
12 | O=C(Nc1nncs1)C(Sc1ccccc1)c1ccccc1 (stereo not drawn) | active: 11.2 µM | –
13 | COc1ccc(-c2nnc(-c3ccc(N(C)C)cc3)o2)cc1 | active: 0.794 µM | –
14 | CC(C)=NOc1cc(NC(=O)CCl)cc([N+](=O)[O-])c1 | active: 10 µM | –
15 | COc1cc2c(c(OC)c1OC)-c1c(cc(OC)c(OC)c1OC)C[C@H](C)[C@H](C)C2 | – | inactive: 0.847%
16 | COc1ccc2c(c1)O[C@H](c1ccc3c(c1)OCO3)[C@@H](OC(=O)NS(=O)(=O)c1ccc(C)cc1)C2=O | – | inactive: 3.97%
17 | COC(=O)C1=C(C)N(CC2CC2)C(=O)N[C@H]1c1ccc(Br)cc1 | – | inactive: 11.9%
18 | O=C(c1cccc(Cl)c1)N1CCC(=O)N([C@H](COCc2cccc(Cl)c2)Cc2ccccc2)CC1 | – | inactive: 4.82% [at 40.7 µM]
19 | CC(=O)OC[C@@]1(O)C[C@]23CCC4c5ccoc5CC[C@@]4(C)C2CCC1C3 (stereo partly drawn) | – | inactive: -36.3%
20 | CN(C)S(=O)(=O)c1cccc(C(=O)NC(=S)N(CCC#N)Cc2cccnc2)c1 | active: 2 µM | –
21 | CC1CCC(C(C)C)C(OC(=O)Cn2c(-c3ccccc3)[n+](C)c3ccccc32)C1 (stereo not drawn) | – | inactive: -77.6%

Row | Structure (SMILES) | Potency | activity change, negative = inhibition
22 | Cc1ccc(-c2ccc(/C=C(\C#N)C(N)=S)n2C)cc1 | active: 2.24 µM | –
23 | C[C@@H]1CC[C@]2(O[C@@H](CCO)C[C@@H](O)[C@@H]2O)O1 | – | inactive: -21.6%
24 | COc1ccc(C(=O)/C(C#N)=N/Nc2ccc([N+](=O)[O-])cc2)cc1 | active: 5.62 µM | –
25 | CC(C)OC(=O)C(C)(C)Oc1ccc(C(=O)c2ccc(Cl)cc2)cc1 | inactive | –
26 | CCOC(=O)[C@@H]1[C@H]2COc3ccc(Br)cc3[C@@H]2N2C(=O)N(c3ccccc3)C(=O)[C@]12C | – | inactive: 23.4%
27 | CC[n+]1c(/C=C(/C)SC)sc2ccccc21 | – | inactive: 59.5%
28 | Oc1cccc(O)c1 | – | inactive: 30.8%
29 | O=C1CC(c2ccccc2)c2cc(O)ccc2O1 (stereo not drawn) | active: 11.2 µM | –
30 | CC(=O)/C=C(/C)NC(Cc1c[nH]c2ccccc12)C(=O)O (stereo not drawn) | – | inactive: -0.87%
31 | CCCn1c(=O)c2[nH]c(C3CCCC3)nc2n(CCC)c1=O | inactive | –
32 | O=C(NCc1ccccc1)OCCN1CCN(Cc2ccccc2)CCC1=O | – | inactive: 3.95%
33 | NC(Cc1cc(I)c(Oc2ccc(O)c(I)c2)c(I)c1)C(=O)O (stereo not drawn) | – | inactive: 14.9%
34 | NCCC(=O)N[C@H](Cc1cnc[nH]1)C(=O)O | – | inactive: -23.5%
35 | O=C(NCc1ccccc1)C1=C[C@H](c2csc3ccccc23)C[C@H](OCc2ccc(CO)cc2)O1 | – | inactive: 40.1%
36 | CC1=NN(C(=O)Cc2ccc([N+](=O)[O-])cc2)C(O)(c2ccccc2)C1 (stereo not drawn) | active: 8.91 µM | –
37 | CC(C)(C)c1ccc(C(=O)Nc2ccc(CC(=O)O)cc2)o1 | active: 0.794 µM | –
38 | COC(=O)C1=C(C)N(Cc2ccco2)C(=O)N[C@H]1c1ccc(Br)cc1 | – | inactive: 14.8%
39 | COc1ccc(N/C=C/C(=O)c2ccc3c(c2)OCO3)cc1OC | – | inactive: 27%
40 | COc1cc(O)c(C(CCN2CCCC(C)C2)c2cc(OC)c(OC)c(OC)c2)c(OC)c1 (stereo not drawn) | – | inactive: 3.53%
41 | O=C(NCc1ccccn1)[C@@H]1C[C@H]1[C@@H](NP(=O)(c1ccccc1)c1ccccc1)c1ccccc1 | – | inactive: -6.58%
42 | COc1ccc(C(=O)N/C(=C\c2cccc3ccccc23)C(=O)NCCc2c[nH]c3ccccc23)cc1OC | – | inactive: -1.7%

Row | Structure (SMILES) | Potency | activity change, negative = inhibition
43 | CC(C)CC(=O)NC(=S)Nc1cc(C(F)(F)F)ccc1N1CCOCC1 | active: 7.94 µM | –
44 | Fc1ccc(SCCc2ccccn2)cc1 | – | inactive: -6.74%
45 | CN(C)/C=N/c1cc(=O)n(C)c(=O)n1Cc1ccccc1 | – | inactive: -19.2%
46 | CC(=O)Nc1scc(C)c1-c1nc2ccccc2s1 | active: 1.12 µM | –
47 | CCn1c(SCc2ccc(Cl)cc2Cl)nc2nc3c(cc2c1=O)CCCC3 | active: 7.08 µM | –
48 | COC(=O)[C@H](c1ccccc1Cl)N1CCc2sccc2C1 | – | inactive: -17.4%
49 | NC(=O)c1ccccc1O | inactive | –
50 | Brc1ccc(C2=NC(Cc3ccccc3)CO2)cc1 (stereo not drawn) | – | inactive: -33.4%
51 | O=C(/C=C\c1ccc(-c2ccccc2)o1)c1ccccc1 | – | inactive: 13.4%
52 | O=C(NC1CCC(C(=O)O)CC1)OCc1ccccc1 (stereo not drawn) | – | inactive: -6.86%
53 | O=C(C1=C[C@@H](C2CC2)C[C@@H](OCc2ccc(CO)cc2)O1)N1CCN(Cc2ccc3c(c2)OCO3)CC1 | – | inactive: 42.2%
54 | Cc1c(Cl)cccc1Nc1ccccc1C(=O)O | inactive | –
55 | Oc1cc2c(cc1O)[C@@H](c1ccccc1)CNCC2 | – | inactive: -1.51%
56 | COc1ccc(CN=C(Nc2ccccc2)SC2CC(=O)NC2=O)cc1 (stereo not drawn) | active: 12.6 µM | –
57 | O=C(N/N=C/c1cccs1)c1ccc(-n2cccc2)cc1 | active: 6.31 µM | –
58 | C=C1CCN(C(CC(C)C)C(=O)OC)S(=O)(=O)c2ccccc21 (stereo not drawn) | – | inactive: 2.07%
59 | CCO[C@@H]1OC(C(=O)Nc2ccccc2)=C[C@H](c2ccc(Br)cc2)[C@H]1CCCO | – | inactive: -2.79%
60 | Cc1cc2nc(N)sc2cc1C | – | inactive: -32.3%
61 | CC(C)NC[C@H](O)c1ccc2ccccc2c1 | – | inactive: 5.65% [at 16.9 µM]
62 | Cc1cc(-c2ccc(N=Nc3ccc4c(S(=O)(=O)O)cc(S(=O)(=O)O)c(N)c4c3O)c(C)c2)ccc1N=Nc1ccc2c(S(=O)(=O)O)cc(S(=O)(=O)O)c(N)c2c1O | – | inactive: 15.3%
63 | CN1CCN(CC/C=C2/c3ccccc3Sc3ccc(S(=O)(=O)N(C)C)cc32)CC1 | – | inactive: -89.5%
